Data as given in PubChem BioAssay AID686978 (National Center for Advancing Translational Sciences (NCATS), 2013).
Where “and” joins values, the source holds several entries; their conditions need not be identical. Equal values may be shown once. Hit rate of the full screen: of about 420,000 compounds, about 64,000 (15%) were called active. Inconclusive means that the source gave no clear call. Such entries were picked first, then a sample of the others. The call rests on the fitted dose curve; in most records, active means well fitted inhibition curve with a large enough effect; inconclusive means small, poorly fitted or top-dose-only effect; inactive means flat fitted curve, though single readings scatter. Potencies of inconclusive entries are doubtful fits and often do not repeat.

Assay: qHTS for Inhibitors of human tyrosyl-DNA phosphodiesterase 1 (TDP1): qHTS in cells in absence of CPT; further: nearly all actives have a fitted effect of over 55% in size
Settings: DT40 Tdp1-/- hTDP1 cells, no CPT, ATP luminescence, 48 h; activity change, negative = growth inhibition: at 46.2 µM (top of the series) unless noted
In short: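 Cells were dispensed at 400 per well, compounds added by pin tool, plates incubated ≥48 hr at 37 °C, then CellTiter-Glo added for 30 min at room temperature before luminescence reading. Line: DT40 Tdp1-/- complemented with hTDP1; camptothecin omitted.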
On the % scale 0 is the no-effect control and ±100 the full control effect; potency means the concentration at half of the fitted maximal effect; tags describe the fitted curve by direction and shape.

With `COc1ccc(Cn2cc(CN3CC(N4CCN(C)CC4)CS3(=O)=O)nn2)cc1` (stereo not drawn) as the compound, how does the activity change, negative = growth inhibition read?
Its activity change, negative = growth inhibition is inconclusive: -31.5% [inhibitor].

Which “activity change, negative = growth inhibition” value does the source give for `CCOC(=O)C1CCN(C(=O)c2cc3cc(Cl)ccc3[nH]2)CC1` here?
The value was inactive: -27.5%.

Which “activity change, negative = growth inhibition” value does the source give for `Cn1c(C(=O)NCCc2ccccc2)cc2sc(Cl)cc21` here?
Its value is inactive: -18.3%.

With `COc1ccc(OC)c(-c2nc3c(C)n[nH]c(=O)c3[nH]2)c1` as the compound, how does the Potency read?
Its Potency is inconclusive: 4.61 µM [inhibitor, partial curve].

Which “activity change, negative = growth inhibition” value does the source give for `CCOC(=O)c1cccc(NC(=O)C2CCN(S(=O)(=O)c3cnc[nH]3)CC2)c1` here?
The value was inactive: 3.15%.

For `Cc1ccc(CNC(=O)CSc2nc3ccsc3c(=O)n2-c2ccc(Br)cc2)cc1`, which Potency is on record?
Its Potency is inconclusive: 29.1 µM [inhibitor, single point].

For `COC(=O)c1ccccc1NC(=O)CC(=O)Nc1ccccc1C(=O)OC`, which Potency is on record?
The Potency was inconclusive: 25.9 µM [inhibitor, single point].

For `Cc1cccc(N2CCN(CC(=O)Nc3nccs3)CC2)c1C`, which “activity change, negative = growth inhibition” value is on record?
The value was inactive: -24%.

Which “activity change, negative = growth inhibition” value does the source give for `COc1ccc(CN2C[C@]3(CO)O[C@@H](CO)C[C@@H]3S2(=O)=O)cc1` here?
The value was inactive: -14%.

Which Potency does the source give for `CS(=O)(=O)N(CC(=O)Nc1cc(Cl)ccc1Cl)c1ccccc1Cl` here?
Its Potency is inconclusive: 25.9 µM [inhibitor, single point].

For `COc1cccc(CNC(=O)COc2cc(O)c3c(c2)OC(C)(C)CC3=O)c1`, which Potency is on record?
The Potency was inconclusive: 29.1 µM [inhibitor, single point].

For `C[C@@H](C(=O)Nc1nc(-c2ccccn2)cs1)N1C(=O)C2CCCCC2C1=O` (stereo partly drawn), which Potency is on record?
The Potency was inconclusive: 29.1 µM [inhibitor, single point].

Which Potency does the source give for `Cc1nc(C)c(-c2ccc(SCC(=O)Nc3cccc(C)c3C)nn2)s1` here?
Its Potency is active: 20.6 µM.

With `COc1ccc(OC)c(NC(=O)Nc2nnc(N3CCC(C)CC3)s2)c1` as the compound, how does the Potency read?
The Potency was inconclusive: 32.6 µM [inhibitor, single point].

With `CCOc1ccc(S(=O)(=O)Nc2cc(Cl)ccc2O)cc1` as the compound, how does the Potency read?
The Potency was inconclusive: 11.6 µM [inhibitor, partial curve].

With `CCCCOC(=O)C[N+](C)(C)CCOC1CC2CCC1(C)C2(C)C` (stereo not drawn) as the compound, how does the Potency read?
The Potency was active: 1.84 µM.

For `Cc1ccc(Cn2c(CNC(=O)c3ccc(Cl)c([N+](=O)[O-])c3)nc3cccnc32)cc1`, which Potency is on record?
The Potency was inconclusive: 18.4 µM [inhibitor, single point].

For `COc1ccc(-c2ccnc(-n3ncc(C(=O)NCc4ccon4)c3C3CC3)n2)cc1F`, which Potency is on record?
The Potency was active: 23.1 µM.

With `CC(C)(C)c1ccc(CSc2nc(N)cc(=O)[nH]2)cc1` as the compound, how does the Potency read?
Its Potency is active: 18.4 µM.

Which Potency does the source give for `O=C(c1c(F)cccc1F)N(Cc1ccccc1)Cc1ccccc1` here?
The Potency was active: 11.6 µM.

With `CCCc1ccc(NC(=O)C2CCCN(c3cnccn3)C2)cc1` (stereo not drawn) as the compound, how does the Potency read?
Its Potency is active: 20.6 µM.

Which Potency does the source give for `O=C(CNc1ccc2ccccc2c1)N/N=C/c1ccc([N+](=O)[O-])o1` here?
The Potency was active: 20.6 µM.

With `O=C(CCN1C(=O)/C(=C/c2ccccc2Cl)SC1=S)NNC(=O)c1ccccc1O` as the compound, how does the Potency read?
Its Potency is inconclusive: 18.4 µM [inhibitor, partial curve].

Which “activity change, negative = growth inhibition” value does the source give for `O=C(Nn1cnnc1)c1cc(Br)ccc1Cl` here?
The value was inactive: 7.84%.

Which Potency does the source give for `CCN(c1ccccc1)S(=O)(=O)c1ccc(Cl)c(NC(=O)CN2C(=O)NC3(CCCC3)C2=O)c1` here?
The Potency was active: 18.4 µM.

Which Potency does the source give for `O=C(NCc1ccccc1)c1csc2c1CCCC2` here?
The Potency was inconclusive: 29.1 µM [inhibitor, single point].

Which “activity change, negative = growth inhibition” value does the source give for `O=C(N/N=C\c1ccc[nH]1)C1COc2ccccc2O1` (stereo not drawn) here?
The value was inactive: -0.204%.

With `C=CCNc1nc(Nc2ccc([N+](=O)[O-])cc2)nc(OC)n1` as the compound, how does the activity change, negative = growth inhibition read?
Its activity change, negative = growth inhibition is inconclusive: -30.3% [inhibitor].

With `CN1C(=O)C(O)(CC(=O)/C=C/c2ccco2)c2cc(Br)ccc21` (stereo not drawn) as the compound, how does the Potency read?
The Potency was active: 4.11 µM.

For `O=C(Nc1nc(-c2ccco2)c(-c2ccco2)s1)C1CCC1`, which Potency is on record?
The Potency was active: 18.4 µM.

With `CCC1Oc2ccc(C)cc2N(CC(=O)N2CCN(c3ccccc3OC)CC2)C1=O` (stereo not drawn) as the compound, how does the Potency read?
The Potency was active: 16.4 µM.

With `COc1cc2c(-c3ccc4cc[nH]c4c3)c(-c3ccc(C#N)cc3)oc(=O)c2cc1OC` as the compound, how does the Potency read?
The Potency was active: 9.2 µM.

Which Potency does the source give for `Cc1noc(C)c1S(=O)(=O)N(CC(=O)NCCc1ccc(Cl)cc1)c1ccc(C(C)C)cc1` here?
The Potency was inconclusive: 29.1 µM [inhibitor, single point].

For `O=C(OCC(=O)N1CCC(Cc2ccccc2)CC1)c1ccc(O)cc1`, which Potency is on record?
The Potency was inconclusive: 18.4 µM [inhibitor, single point].

With `COc1cc(O)c(/C=N/NC(=O)c2ccncc2)c(OC)c1[N+](=O)[O-]` as the compound, how does the activity change, negative = growth inhibition read?
Its activity change, negative = growth inhibition is inconclusive: -36.2% [inhibitor].

Which Potency does the source give for `CCOc1ccc(C2C(C#N)=C(C)NC3=C2C(=O)c2ccccc23)cc1` (stereo not drawn) here?
Its Potency is active: 14.6 µM.

With `COC(=O)c1ccc(N2C(=O)c3ccc(OC)c(OC)c3C2=O)cc1` as the compound, how does the “activity change, negative = growth inhibition” value read?
The value was inactive: -0.263%.

Which Potency does the source give for `CC1(C)CC(NC(=O)c2ccc(Cl)c(S(=O)(=O)N(Cc3ccccc3)c3ccccc3)c2)CC(C)(C)N1` here?
Its Potency is inconclusive: 16.4 µM [inhibitor, single point].

Which “activity change, negative = growth inhibition” value does the source give for `COc1ccc(N2CCN(C(=O)COC(=O)CSc3ccccc3)CC2)cc1` here?
The value was inactive: -36%.

For `CCOc1ccc(Nc2nc(C)c(NC(=O)c3cccc(F)c3)c(Nc3ccc(OCC)cc3)n2)cc1`, which Potency is on record?
Its Potency is active: 0.517 µM.

For `O=C(Nc1nc2ccccc2[nH]1)C1CCC1`, which Potency is on record?
Its Potency is active: 23.1 µM.

For `COc1cccc(-c2oc3ccc(C)cc3c(=O)c2O)c1`, which Potency is on record?
Its Potency is active: 13 µM.

Which Potency does the source give for `CCOc1ccccc1NC(=O)C(Sc1ccccc1)c1ccccc1` (stereo not drawn) here?
Its Potency is inconclusive: 29.1 µM [inhibitor, single point].

With `COC1=CC(=O)OC(c2ccccc2)C1` (stereo not drawn) as the compound, how does the “activity change, negative = growth inhibition” value read?
Its value is inactive: 3.68%.

Which Potency does the source give for `COc1cc(NC(=O)CN2CCCN(S(=O)(=O)c3ccc(F)cc3)CC2)cc(OC)c1` here?
The Potency was inconclusive: 25.9 µM [inhibitor, single point].

For `C=CCc1cccc2cc(C(=O)Nc3ccc(S(=O)(=O)Nc4nnc(CC)s4)cc3)c(=O)oc12`, which “activity change, negative = growth inhibition” value is on record?
The value was inactive: -21.9%.

Which “activity change, negative = growth inhibition” value does the source give for `O=C(c1cc2cc([N+](=O)[O-])ccc2oc1=O)N1CCN(C2CCCCC2)CC1` here?
The value was inactive: 2.15%.

With `c1ncc2snnc2n1` as the compound, how does the “activity change, negative = growth inhibition” value read?
The value was inactive: -15.4%.

Which Potency does the source give for `O=C(NC1CCCCC1)N1CCCc2ccccc21` here?
Its Potency is inconclusive: 23.1 µM [inhibitor, single point].

For `C[C@@H]1O[C@@H](OC[C@H]2O[C@@H](Oc3c(-c4ccc(O)c(O)c4)oc4cc(O)cc(O)c4c3=O)[C@H](O)[C@@H](O)[C@@H]2O)[C@H](O)[C@H](O)[C@H]1O`, which Potency is on record?
The Potency was “inactive and inconclusive: 6.51 µM [inhibitor, single point]”.

Which activity change, negative = growth inhibition does the source give for `Cc1ccc2nc(-c3ccc(NC(=O)COc4ccccc4C(C)(C)C)cc3)sc2c1` here?
The activity change, negative = growth inhibition was inconclusive: -30.5% [inhibitor].

With `Cc1cc(C)c(S(=O)(=O)N(C)CC(=O)N2CCCC2)c(C)c1` as the compound, how does the Potency read?
The Potency was inconclusive: 18.4 µM [inhibitor, single point].

Which Potency does the source give for `COc1ccc2cc(CN(C(=O)Nc3ccccc3OC)C3CCCC3)c(=O)[nH]c2c1` here?
The Potency was inconclusive: 29.1 µM [inhibitor, single point].

Which Potency does the source give for `CCOC(=O)c1[nH]c2c(OCC)nc(OCC)nc2c1Br` here?
The Potency was inconclusive: 11.6 µM [inhibitor, partial curve].

Which Potency does the source give for `O=C(NC1CCSc2ccccc21)c1cc(S(=O)(=O)N2CCOCC2)ccc1Cl` (stereo not drawn) here?
The Potency was inconclusive: 20.6 µM [inhibitor, partial curve].

For `O=C(Nc1ccc(N2CCN(C(=O)c3ccccc3F)CC2)cc1)c1cncc(Br)c1`, which Potency is on record?
The Potency was active: 18.4 µM.

For `C[C@H](CO)NC(=O)c1nc[nH]c1C(=O)N[C@@H](C)c1ccccc1`, which Potency is on record?
Its Potency is inconclusive: 18.4 µM [inhibitor, single point].

For `O=C(COc1ccc(Cl)cc1)NCCS(=O)(=O)N1CCN(c2ccc(F)cc2)CC1`, which Potency is on record?
The Potency was inconclusive: 18.4 µM [inhibitor, partial curve].

With `COc1ccc(C)cc1NC(=O)C1CCCN(S(=O)(=O)c2cccc3cccnc23)C1` (stereo not drawn) as the compound, how does the Potency read?
Its Potency is inconclusive: 29.1 µM [inhibitor, single point].

Which “activity change, negative = growth inhibition” value does the source give for `COc1ccc(C(C)(C)C)cc1NC(=O)Cn1cnnn1` here?
The value was inactive: -1.62%.

With `COc1ccc(C2C(C(=O)Nc3cccnc3)=C(C)Nc3nc(SCc4ccccc4)nn32)cc1` (stereo not drawn) as the compound, how does the “activity change, negative = growth inhibition” value read?
Its value is inactive: -5.48%.

Which Potency does the source give for `CC(OC(=O)[C@@H](NC(=O)OCc1ccccc1)C(C)C)C(=O)Nc1ccc(N2CCOCC2)cc1` (stereo partly drawn) here?
The Potency was inconclusive: 20.6 µM [inhibitor, single point].

Which activity change, negative = growth inhibition does the source give for `COC(=O)c1c(C(=O)OC)c(-c2ccc(F)cc2)n2c1CSC2` here?
Its activity change, negative = growth inhibition is inconclusive: -33.1% [inhibitor].

With `CCN(C[C@H]1N[C@@](Cc2ccccc2)(C(=O)OC)[C@H]2C(=O)N(C)C(=O)[C@@H]12)C(=O)c1ccccc1` as the compound, how does the “activity change, negative = growth inhibition” value read?
Its value is inactive: -0.899%.

Which “activity change, negative = growth inhibition” value does the source give for `COc1ccc(C(C)NC(=O)c2ccncc2)cc1` (stereo not drawn) here?
The value was inactive: -0.0958%.

With `Cc1c(C(=O)Nc2nc3ccccc3[nH]2)oc2ccccc12` as the compound, how does the Potency read?
Its Potency is active: 23.1 µM.

With `O=C(NC(=S)Nc1cc(S(=O)(=O)N2CCOCC2)ccc1N1CCOCC1)c1ccco1` as the compound, how does the Potency read?
The Potency was inconclusive: 20.6 µM [inhibitor, single point].

Which Potency does the source give for `CCOCCCNC(=O)c1ccc(Cn2c(=O)c3cccn3c3cccnc32)cc1` here?
The Potency was inconclusive: 23.1 µM [inhibitor, single point].

Which Potency does the source give for `Cc1ccc(-c2cc(NC=O)c3ncc(-c4cnn(C)c4)n3c2)cc1` here?
Its Potency is active: 3.66 µM.

With `CC(=O)NC(C)c1nc2ccccc2n1Cc1ccccc1Cl` (stereo not drawn) as the compound, how does the Potency read?
The Potency was inconclusive: 23.1 µM [inhibitor, single point].

With `Fc1cccc(Cc2c(-c3cccc(Cl)c3)nc3c4ccccc4ccn23)c1` as the compound, how does the Potency read?
Its Potency is active: 18.4 µM.

With `COc1ccc(-c2nc(CN3CCCCC3c3nccn3C)c(C)o2)c(C)c1C` (stereo not drawn) as the compound, how does the Potency read?
Its Potency is inconclusive: 18.4 µM [inhibitor, single point].

With `Brc1ccc(Nc2c3c(nc4ncnn24)CCC3)cc1` as the compound, how does the Potency read?
The Potency was inconclusive: 29.1 µM [inhibitor, single point].
